A collection of fitness landscapes (doi:10.1016/j.celrep.2020.107928)
Over roughly 81,000 sequences, “one-hybrid fitness for binding NBS DNA” has its median near -0.1; the highest 2% begin near 0.36. Some of the results follow.

B1: Caulobacter ParB omega fusion; a variant is named by its letters at X, in order, B8GW30 (parent)
chain: MESVVVGEPGMSEGRRGLGRGLSALLGEVDAAPAQAPGEQLGGSREAPIEILQRNPDQPRRTFREEDLEDLSNSIREKGVLQPILVRPSPDTAGEYQIVAGERAWRAAQRAGLKTVPIMVRELDDLAVLEIGIIENVQRADLNVLEEALSYKVLMEKFERTQENIAQTIGKSXSHVANXMRLLXLPDEVQSYLVSGELTAXHARAIAAAADPVALAKQIIEGGLSVRETEALARKAPNLSAGKSKGGRPPRVKDTDTQALESDLSSVLGLDVSIDHRGSTGTLTITYATLEQLDDLCNRLTRGI

Variants of: B1
Experiment: one-hybrid fitness for binding NBS DNA (the Noc-binding site; scaled: cognate 1, non-cognate 0); higher = stronger binding
Conditions: with NBS DNA site
Procedure, shortened: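 The reporter was HIS3, with the binding site 19 bp from the promoter, in E. coli USO used for bacterial one-hybrid selection of Caulobacter ParB libraries with four specificity codons randomised. Growth was on M9 lacking histidine, with 0.1 mM IPTG and 5 mM 3-AT, for 48 hours at 37°C. Illumina sequencing covered plasmids before and after selection; three replicate libraries were pooled and variants with under 10 reads dropped. A fitness score is the log change in variant-to-wild-type read ratio, rescaled to the cognate and non-cognate references.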

Variant	one-hybrid fitness for binding NBS DNA
GEYL	≤ 0.2
NSMM	≤ 0.2
AASC	≤ 0.2
GVRI	≤ 0.2
QQHT	0.535
YQLH	≤ 0.2
LEAM	≤ 0.2
VGMN	≤ 0.2
FIRY	≤ 0.2
DLIW	≤ 0.2
TFNS	≤ 0.2
STCR	≤ 0.2
KPPG	≤ 0.2
PMHR	≤ 0.2
VPQS	≤ 0.2
MDWS	≤ 0.2
PRKR	0.4
LRDV	≤ 0.2
HYPV	≤ 0.2
TMDY	≤ 0.2
SCPE	≤ 0.2
KTWM	≤ 0.2
HDRR	≤ 0.2
VTMA	≤ 0.2
AYYS	≤ 0.2
QLPI	≤ 0.2

Variant	one-hybrid fitness for binding NBS DNA
PRGH	≤ 0.2
RVKG	≤ 0.2
SGNW	≤ 0.2
YEIR	≤ 0.2
QGMV	≤ 0.2
SQLD	≤ 0.2
YVVK	≤ 0.2
QHRS	0.627
MKVK	≤ 0.2
FRPV	≤ 0.2
NAPF	≤ 0.2
QNQR	0.221
PGWT	≤ 0.2
IGNC	≤ 0.2
TGLT	≤ 0.2
ADYR	≤ 0.2
QVCD	≤ 0.2
EVVG	≤ 0.2
NEFT	≤ 0.2
TSWS	≤ 0.2
LDVY	≤ 0.2
DQIL	≤ 0.2
LEGG	≤ 0.2
IAGC	≤ 0.2
VPSE	≤ 0.2
PILG	≤ 0.2

Variant	one-hybrid fitness for binding NBS DNA
QHPN	≤ 0.2
EDYS	≤ 0.2
LYEP	≤ 0.2
DLAA	≤ 0.2
ADTV	≤ 0.2
TLRT	≤ 0.2
RPMG	≤ 0.2
PHHG	≤ 0.2
WCCS	≤ 0.2
CGEG	≤ 0.2
HISC	≤ 0.2
RLQN	≤ 0.2
VMSL	≤ 0.2
PDRY	≤ 0.2
ETIQ	≤ 0.2
KSGS	≤ 0.2
RCFI	≤ 0.2
WYCS	≤ 0.2
ELTG	≤ 0.2
YAQR	≤ 0.2
PREL	≤ 0.2
RYYL	≤ 0.2
CYWC	≤ 0.2
TQWK	≤ 0.2
ADHV	≤ 0.2
CATS	≤ 0.2

Variant	one-hybrid fitness for binding NBS DNA
PQNE	≤ 0.2
HRLN	≤ 0.2
KNLG	≤ 0.2
QGKQ	≤ 0.2
TMPF	≤ 0.2
RKKK	0.298
NLRQ	≤ 0.2
QDVN	≤ 0.2
SCTC	≤ 0.2
AANM	≤ 0.2
QDTC	≤ 0.2
TELS	≤ 0.2
QHYP	≤ 0.2
DIGI	≤ 0.2
GAGC	≤ 0.2
ENSS	≤ 0.2
WQGT	≤ 0.2
TRDY	≤ 0.2
DSQC	≤ 0.2
QMGY	0.219
NKPS	≤ 0.2
PIAT	≤ 0.2
RHET	0.216
GCNP	≤ 0.2
QMKR	1.03
RPIY	≤ 0.2

Variant	one-hybrid fitness for binding NBS DNA
HVTL	≤ 0.2
HAYD	≤ 0.2
QMHM	≤ 0.2
VKQD	≤ 0.2
NCYG	≤ 0.2
GWAT	≤ 0.2
ILMP	≤ 0.2
QQLE	≤ 0.2
DSLI	≤ 0.2
DRPA	≤ 0.2
YWMG	≤ 0.2
YMGS	≤ 0.2
NGTM	≤ 0.2
HHSR	≤ 0.2
HAND	≤ 0.2
KAWF	≤ 0.2
LLKK	≤ 0.2
RVQV	≤ 0.2
DLSR	≤ 0.2
MLIL	≤ 0.2
QLTT	0.393
YTER	≤ 0.2
VKGG	≤ 0.2
PCSP	≤ 0.2
SPVA	≤ 0.2
GVRS	≤ 0.2

Variant	one-hybrid fitness for binding NBS DNA
SRQC	≤ 0.2
LFHD	≤ 0.2
TPDI	≤ 0.2
HFSN	≤ 0.2
ALWW	≤ 0.2
QPVL	≤ 0.2
VRPR	≤ 0.2
TPVW	≤ 0.2
MFAC	≤ 0.2
KKWG	≤ 0.2
ERLH	≤ 0.2
RCMQ	≤ 0.2
LPKW	≤ 0.2
MYAF	≤ 0.2
CTAR	≤ 0.2
ETHS	≤ 0.2
AGIT	≤ 0.2
SLLR	≤ 0.2
CTHQ	≤ 0.2
KFTV	≤ 0.2
CAIY	0.201
PRNE	≤ 0.2
QYLV	≤ 0.2
